Measured values reported in article PMC4336329 (PLoS ONE, 2015).
Among all 310,000 compounds or so, about 2,200 (0.71%) showed an effect of 50% or more. Effects have a minus sign here. Some of the results follow.

Target: human ether-à-go-go-related gene (hERG) potassium channel (human, UniProt Q12809)
Assay: primary screen, population patch clamp on CHO cells stably expressing hERG

human ether-à-go-go-related gene (hERG) potassium channel, sequence (Q12809 whole entry, looked up): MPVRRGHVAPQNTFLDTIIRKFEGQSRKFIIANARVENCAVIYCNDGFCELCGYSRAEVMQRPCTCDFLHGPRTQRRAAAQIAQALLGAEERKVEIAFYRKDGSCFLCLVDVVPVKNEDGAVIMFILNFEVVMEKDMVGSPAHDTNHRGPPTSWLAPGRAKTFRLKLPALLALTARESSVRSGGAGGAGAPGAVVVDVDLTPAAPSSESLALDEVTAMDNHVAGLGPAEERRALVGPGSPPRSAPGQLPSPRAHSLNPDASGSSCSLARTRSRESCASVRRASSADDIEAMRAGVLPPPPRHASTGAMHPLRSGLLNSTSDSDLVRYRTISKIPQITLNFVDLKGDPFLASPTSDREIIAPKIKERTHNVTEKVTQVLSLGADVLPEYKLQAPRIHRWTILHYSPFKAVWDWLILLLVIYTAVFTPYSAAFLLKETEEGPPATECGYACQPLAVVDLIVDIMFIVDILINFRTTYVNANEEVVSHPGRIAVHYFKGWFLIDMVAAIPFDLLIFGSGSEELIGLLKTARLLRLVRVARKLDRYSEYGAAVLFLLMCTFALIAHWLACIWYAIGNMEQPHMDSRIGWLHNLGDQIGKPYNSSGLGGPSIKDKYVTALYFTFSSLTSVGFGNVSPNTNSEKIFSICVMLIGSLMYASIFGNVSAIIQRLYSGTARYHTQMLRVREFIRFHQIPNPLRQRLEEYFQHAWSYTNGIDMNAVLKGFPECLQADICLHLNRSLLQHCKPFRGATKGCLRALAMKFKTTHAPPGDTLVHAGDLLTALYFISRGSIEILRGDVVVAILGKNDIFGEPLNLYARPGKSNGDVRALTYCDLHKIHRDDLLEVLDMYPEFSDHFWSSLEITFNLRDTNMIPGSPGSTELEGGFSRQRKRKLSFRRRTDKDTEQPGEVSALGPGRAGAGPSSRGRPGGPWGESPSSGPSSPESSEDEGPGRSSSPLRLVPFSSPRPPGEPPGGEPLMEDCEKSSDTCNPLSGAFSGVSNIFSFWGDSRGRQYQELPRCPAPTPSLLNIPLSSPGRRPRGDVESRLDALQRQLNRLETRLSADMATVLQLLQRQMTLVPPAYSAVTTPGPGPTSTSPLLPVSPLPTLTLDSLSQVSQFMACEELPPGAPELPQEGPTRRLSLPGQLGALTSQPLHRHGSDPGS

Row | SMILES | hERG current change (%, negative = inhibition) at 1uM [%]
1 | Cc1ccc(SCCN2CCC(C)CCC2=O)cc1 (centres unmarked) | -2.54
2 | CCCN(CC(=O)Nc1ccccc1C)C(=O)CSc1ccccc1C | 14.1
3 | O=C1C(=O)N(CCO)C(c2ccccc2)/C1=C(\O)c1ccccc1 (centres unmarked) | 7.93
4 | CCOc1ccc(/C=C2\SC(=O)N(CCNC(=O)CN3C(=O)NC4(CCCC4)C3=O)C2=O)cc1OC | 7.19
5 | CC1(c2ccccc2)NC(=O)N(Cc2ccc([N+](=O)[O-])cc2)C1=O (centres unmarked) | -16.4
6 | O=C(NNC(=O)c1cc(-c2ccncc2)nc2ccccc12)Nc1ccc(F)cc1 | 9.21
7 | CC(C)OCCCNC(=O)c1cc(-c2cccnc2)nc2ccccc12 | 16.5
8 | COC(=O)c1ccccc1NC(=O)Cn1cnc2ccc(S(=O)(=O)N3CCC(C)CC3)cc2c1=O | 4.04
9 | O=C(Nc1cnc2ccccc2c1)N1CCOCC1 | 8.57
10 | CCOc1ccccc1NC(=O)CSc1nnc(C2CC2)n1CC | 16.9
11 | O=C(O)c1ccccc1-c1nc(-c2ccccc2)c(-c2ccccc2)[nH]1 | 24
12 | CCn1nnnc1SCC(=O)Nc1ccc2c(c1)OCCO2 | 7.92
13 | O=C(O)CCc1nc2cc(C(F)(F)F)ccc2n(Cc2ccccc2)c1=O | 23.7
14 | Cc1cc(=O)oc2c1c(C(F)(F)F)nn2-c1ccccc1 | 7.45
15 | CCC(C(=O)NC(C)(C)C)N(Cc1cccs1)C(=O)CNS(=O)(=O)c1ccccc1 (centres unmarked) | -0.0593
16 | O=C(NCCC(=O)N(Cc1ccco1)Cc1cccs1)c1ccc(Br)cc1 | 12.3
17 | CCc1ccc(NC(=O)N(CCCN2CCOCC2)C(C)c2cc3cccc(OC)c3o2)cc1 (centres unmarked) | 2.34
18 | Cc1ccc(S(=O)(=O)N(CCCO)CC(O)CON=C2c3ccccc3-c3ccccc32)cc1 (centres unmarked) | 13
19 | O=C(Cc1ccccc1)c1c[nH]c(C(=O)NCCCN2CCOCC2)c1 | 8.66
20 | CN(C)CC/C=C1/c2ccccc2CS(=O)(=O)c2ccccc21 | 12.8
21 | C/C(=N\NC(N)=S)C1(C)CC2(CC(C)(C)OC2=O)C(=O)O1 (centres unmarked) | 10.1
22 | CCCC(=O)Nc1ccccc1-c1nnn(CC(=O)Nc2ccc(OC)cc2)n1 | -0.23

Row | SMILES | hERG current change (%, negative = inhibition) at 1uM [%]
23 | C=CCN1C(=O)C(Cc2ccc(C)cc2)S/C1=N/N=C/c1ccco1 (centres unmarked) | 12.1
24 | Cc1ccc(NCc2nnc(SCC(=O)NNC(=O)Cc3ccccc3)n2C)cc1 | 13.8
25 | CCOc1ccc(NC(=O)CNC(=O)c2ccc(OC)cc2)cc1 | 10.8
26 | O=C(NNC(=O)c1cccc(S(=O)(=O)Nc2ccc(Cl)cc2)c1)c1ccc(=O)[nH]c1 | 5.32
27 | CCc1cc2ccc(C)cc2nc1SCC(=O)N1CCN(C(=O)c2ccco2)CC1 | -11.8
28 | COc1cc(-c2nnc(SCC3(c4ccccc4)OCCO3)o2)cc(OC)c1OC | 9.72
29 | CCOc1ccc(Nc2ncnc3ccc([N+](=O)[O-])cc23)cc1 | 18.7
30 | Cc1ccc(Nc2nc(N)nc(CSc3ncccn3)n2)cc1 | 4.58
31 | CC(NC(=O)C1CCN(C(=O)Nc2ccccc2)CC1)c1ccccc1 (centres unmarked) | 3.97
32 | O=C(CCn1nnc(-c2cccs2)n1)NC1CCCCC1 | 9.66
33 | CC(NC(=O)CSc1nc2ccccc2c(=O)[nH]1)c1ccccc1 (centres unmarked) | -3
34 | CCCCC(=O)OCC(=O)Nc1ccc(OC(F)F)cc1 | 1.88
35 | C[C@@H](C(=O)NCc1ccc(S(C)(=O)=O)cc1)[C@H]1C[C@]1(C)[C@H](NC(=O)OCc1ccccc1)c1ccccc1 | 13.3
36 | CCN(CC)c1ncnc2c1ncn2Cc1c(Cl)cccc1Cl | 13.2
37 | CCC(C)NC(=O)Nc1ccc2c(c1)N(C)C(=O)c1ccccc1S2 (centres unmarked) | 0.43
38 | Clc1ccccc1-c1ccc(CN2CCN(c3ccccc3)CC2)o1 | 5.09
39 | CCNC(=O)C(Cc1ccccc1)NC(=O)OCc1ccccc1 (centres unmarked) | 10.4
40 | CCS(=O)(=O)N1Cc2ccccc2CC1C(=O)Nc1ccc(F)c(F)c1 (centres unmarked) | 7.83
41 | CCOC(=O)N1CCC(N2C(=O)c3ccccc3C2Nc2ccc(S(=O)(=O)N3CCCCC3)cc2)CC1 (centres unmarked) | -7.87
42 | CN1CCN(C(=O)CN(c2ccccc2)S(=O)(=O)N(C)C)CC1 | 15.2
43 | CCc1nnc(NC(=O)CSc2nnc(CCc3nc4ccccc4[nH]3)n2C)s1 | 19.2
44 | N#Cc1c2n(c(=S)n(-c3ccccc3)c1=O)CCCCC2 | 2.53

Row | SMILES | hERG current change (%, negative = inhibition) at 1uM [%]
45 | Cc1ccc(CNc2ccc(N3CCOCC3)cc2)cc1 | 2.34
46 | Fc1ccccc1OCCSc1ncnc2nc[nH]c12 | 10.9
47 | Cc1onc(-c2ccccc2)c1C(=O)OCC(=O)Nc1cc(S(=O)(=O)N2CCOCC2)ccc1Cl | 8.47
48 | CCc1nnc(SCC(=O)NCCC2=CCCCC2)nc1CC | 8.71
49 | CC(C)(C)CC(=O)NCCc1csc(-c2ccccc2)n1 | 5.89
50 | Cc1ccc(S(=O)(=O)N2CCC(NC(=O)c3cccnc3)CC2)cc1Cl | 8.08
51 | CN(c1cccc(NC(=O)COc2ccccc2)c1)S(C)(=O)=O | 4.12
52 | CC(C)(C)c1ccc(-c2nc3n(c(=O)c2C#N)CCS3)cc1 | 4.45
53 | COc1cccc(C2=NOC(C(=O)N3CCC4(CC3)OCCO4)C2)c1 (centres unmarked) | -2.21
54 | CCN(CC)C(=O)CN(c1cc(Cl)ccc1OC)S(=O)(=O)c1ccc(C)c([N+](=O)[O-])c1 | 15.6
55 | COc1ccc(CCNC(=O)c2c(Cl)ccc(Cl)c2OC)cc1OC | -0.859
56 | COc1ccc(NC(=O)c2ccc(C(=O)c3ccccc3)o2)cc1 | 13.6
57 | Cc1cccc(-c2noc(CN(C(C)C)S(=O)(=O)c3ccc(F)cc3)n2)c1 | 7.56
58 | COc1ccc(/C=C/c2c(-c3cccc(C)c3)oc3ccc(-c4ccc5c(c4)OCO5)cc23)cc1 | 11.5
59 | CCCCCN(C(=O)CN(C)Cc1ccc(OC)cc1OC)c1c(N)n(CCCC)c(=O)[nH]c1=O | 6.56
60 | O=C(Cn1nc(-c2ccccc2F)ccc1=O)Nc1ccc(S(=O)(=O)N2CCCCCC2)cc1 | 15
61 | COc1ccc(C(=O)OCC(=O)Nc2ccc(F)cc2F)cc1OC | 15.3
62 | COc1ccc(C(=O)/C=C2\Sc3ccccc3N2C)cc1 | 10.8
63 | O=C(CCCC(=O)OCC(F)(F)C(F)F)Nc1ccc(NC(=O)CCCC(=O)OCC(F)(F)C(F)F)cc1 | 16.4
64 | Cc1nnsc1C(=O)N1CCN(c2cc(C(F)(F)F)ccn2)CC1 | 2.07
65 | CCC(C)Nc1ccc(NC(C)CC)cc1 (centres unmarked) | 10.9
66 | CC(C)(C)c1ccc(S(=O)(=O)N2CCN(CCC#N)CC2)cc1 | 10.1

Row | SMILES | hERG current change (%, negative = inhibition) at 1uM [%]
67 | Nc1ncnc2c1nc(Br)n2[C@@H]1O[C@@H]2COP(=O)([O-])O[C@H]2[C@H]1O.[Na+] | 10.9
68 | O=C(O)/C=C\C(=O)O.O=[N+]([O-])c1ccc2nc(N3CCNCC3)ccc2c1 | 1.34
69 | Cc1ccc(NP(=O)(Nc2ccc(C)cc2)Oc2ccccc2)cc1 | 15.8
70 | Cc1ccc(CNC(=O)c2ccccc2NC(=O)C2=CSCCO2)cc1 | 29.6
71 | Cc1cccc(C(=O)NC2CCN(S(=O)(=O)c3ccccc3)CC2)c1 | 8.48
72 | CCN1C(=O)CSc2ccc(C(=O)NCc3ccccc3OC)cc21 | 3.87
73 | CC(CN1CCN(C)CC1)OC(=O)c1ccc(Cl)cc1.Cl (centres unmarked) | -5.19
74 | CCN(CC(=O)Nc1ccccc1C(F)(F)F)C(=O)COc1cccc2c1OC(C)(C)C2 | 8.31
75 | Cc1ccc(S(=O)(=O)CCN2CCC(n3cccc3)CC2)cc1 | 12.2
76 | CCC(CO)Nc1ccc([N+](=O)[O-])c2cccnc12 (centres unmarked) | -0.746
77 | CCOC(=O)C1CCN(C(=O)C2CC(=O)N(c3ccc(C)cc3)C2)CC1 (centres unmarked) | -1.63
78 | O=C(Nc1ccccc1C(F)(F)F)C(O)(c1ccccc1)C1CCCCC1 (centres unmarked) | 13.1
79 | Cl.OC(COC(c1ccc(Cl)cc1)c1ccc(Cl)cc1)CN1CCc2ccccc2C1 (centres unmarked) | -6.99
80 | OCCNC(=S)NC1CCCCC1 | 6.49
81 | COc1ccc(S(=O)(=O)N(CC(=O)Nc2ccc(S(=O)(=O)N3CCOCC3)cc2)c2ccccc2)cc1 | 12
82 | NC(=O)c1cc2ccccc2o/c1=N\NC(=O)c1ccco1 | 3.6
83 | O=C(O)/C=C\C(=O)Nc1ccc(N2CCN(c3ccc(F)cc3)CC2)cc1 | 1.25
84 | COc1ccc(N2CCN(C(=O)CCCn3c(=O)[nH]c4cc(Cl)ccc4c3=O)CC2)cc1 | 15.9
85 | CCOc1ccccc1C(=O)OCC(=O)Nc1nnc(-c2ccccc2)o1 | -3.82
86 | COc1ccccc1N(CN1CCCC1=O)C(=O)c1c(F)cccc1F | -0.165
